Experimental data published in PubChem BioAssay (Tox21).
Some compounds were tested as several samples or in several runs, with calls that do not always agree. The call rests on the fitted dose curve. Not every entry of the source has a single result; some have several. This is not the full list of results. There may be further records. Values that stand side by side are repeats across runs, samples, wells, individuals or studies. A tag in brackets gives the origin of a value. A, B and so on number the origins entry by entry.

What follows are compounds tested against Gonadotropin-releasing hormone receptor (Homo sapiens) (UniProt P30968) (assay: Human gonadotropin-releasing hormone receptor (GnRHR) small molecule agonists, calcium flux assay in GnRHR-HEK293 cells (AID 1920063; further: nearly all actives have a fitted effect of over 35% in size)). Conditions: calcium flux fluorescence, agonist mode; series mostly up to 26.4 µM.
How it was run: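 Cells: HEK293 stably expressing human GnRHR. Steps: overnight (18 h) culture, 1 h calcium dye loading at 37 C, compound addition, kinetic fluorescence read at 480/540 nm. Each compound tested at 15 concentrations in triplicate.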
Potency means the concentration at half of the fitted maximal effect.

Chain of UniProt P30968 (P30968 whole entry, looked up): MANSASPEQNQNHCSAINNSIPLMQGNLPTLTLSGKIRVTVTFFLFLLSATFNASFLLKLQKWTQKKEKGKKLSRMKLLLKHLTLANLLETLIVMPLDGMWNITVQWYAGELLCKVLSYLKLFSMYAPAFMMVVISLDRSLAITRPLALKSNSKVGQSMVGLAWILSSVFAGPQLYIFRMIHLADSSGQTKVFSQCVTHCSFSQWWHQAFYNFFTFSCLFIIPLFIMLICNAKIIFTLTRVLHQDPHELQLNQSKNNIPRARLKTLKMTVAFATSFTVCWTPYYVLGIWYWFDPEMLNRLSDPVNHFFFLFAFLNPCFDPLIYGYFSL

Row | SMILES | Potency
1 | Oc1c(Cl)cc(Cl)cc1Sc1cc(Cl)cc(Cl)c1O | active: 39 µM [sample A] and active: 38.9 µM [sample B] and inactive [sample C]
2 | C#CC1(O)CC[C@H]2[C@@H]3CCC4=CCCC[C@@H]4[C@H]3CC[C@@]21C (stereo not given in full) | active: 38.9 µM [sample A] and inactive [sample B]
3 | CCCCCCCCCCCCCC[N+](C)(C)C | active: 27.5 µM [sample A] and inactive [sample B]
4 | COC(=O)c1cccc(C(=O)OC)c1 | inactive [sample A] and active: 43.7 µM [sample B]
5 | C=C[C@@]1(C)CC(=O)[C@]2(O)[C@@]3(C)[C@@H](O)CCC(C)(C)[C@@H]3[C@H](O)[C@H](OC(C)=O)[C@@]2(C)O1 | active: 4.9 µM [sample A] and inactive [sample B]
